According to PubChem BioAssay AID1645887 (National Center for Advancing Translational Sciences (NCATS), 2021):
“And” between values parts separate entries of the source, which are not always exact repeats. Identical values can stand only once. In all, about 16,000 compounds went through this assay and about 40 (0.2%) were called active. Not shown: some 1% with an inconclusive outcome. Calls follow the shape of the dose curve; as a rule, active = well fitted activation curve with a large enough effect; inconclusive = small, poorly fitted or top-dose-only effect, or another doubt; inactive = no such curve, though single readings can be large or run the other way. The list shows a part of the results. Residues, ends and D or L forms follow the SMILES beside them.

Target: Rap guanine nucleotide exchange factor 4 (Homo sapiens) (UniProt Q8WZA2)
Chain of UniProt Q8WZA2 (Q8WZA2 whole entry, looked up): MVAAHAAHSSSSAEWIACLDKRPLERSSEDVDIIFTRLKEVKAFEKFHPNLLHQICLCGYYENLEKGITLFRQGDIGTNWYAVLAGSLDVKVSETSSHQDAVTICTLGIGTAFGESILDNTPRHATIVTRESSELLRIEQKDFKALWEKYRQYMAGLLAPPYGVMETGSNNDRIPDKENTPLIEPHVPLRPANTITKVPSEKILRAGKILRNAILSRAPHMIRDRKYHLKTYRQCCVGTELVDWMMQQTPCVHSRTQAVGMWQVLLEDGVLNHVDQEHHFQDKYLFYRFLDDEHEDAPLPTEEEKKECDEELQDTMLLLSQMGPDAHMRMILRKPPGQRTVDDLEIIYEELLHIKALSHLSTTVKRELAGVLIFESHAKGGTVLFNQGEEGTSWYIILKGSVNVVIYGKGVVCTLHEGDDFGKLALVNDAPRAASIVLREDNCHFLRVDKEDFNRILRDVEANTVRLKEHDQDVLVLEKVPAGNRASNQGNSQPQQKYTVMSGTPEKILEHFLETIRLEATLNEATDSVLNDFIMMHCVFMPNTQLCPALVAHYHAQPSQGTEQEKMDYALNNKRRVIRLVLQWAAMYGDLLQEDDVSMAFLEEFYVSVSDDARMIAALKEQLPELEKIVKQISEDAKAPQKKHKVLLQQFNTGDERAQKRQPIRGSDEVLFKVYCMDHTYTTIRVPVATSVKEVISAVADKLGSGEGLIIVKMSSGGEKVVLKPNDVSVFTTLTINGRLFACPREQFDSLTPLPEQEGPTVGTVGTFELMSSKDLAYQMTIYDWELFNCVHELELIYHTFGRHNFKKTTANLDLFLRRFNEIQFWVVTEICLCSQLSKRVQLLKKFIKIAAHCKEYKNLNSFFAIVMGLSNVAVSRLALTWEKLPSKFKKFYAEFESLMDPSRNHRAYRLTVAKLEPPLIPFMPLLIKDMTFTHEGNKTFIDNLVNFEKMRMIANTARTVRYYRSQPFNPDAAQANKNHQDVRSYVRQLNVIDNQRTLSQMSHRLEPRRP
Assay: Validation qHTS for agonist of cAMP-regulated guanine nucleotide exchange factor 4 (EPAC2);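 also: exchange makes BODIPY-GDP fluorescence drop when released from Rap1B; series mostly up to about 150 µM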
Details: EPAC2 Rap1B BODIPY-GDP exchange, fluorescence; activation: hits give high values
Procedure, shortened: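 Fluorescent exchange assay: 100 nM EPAC2 with 250 nM RAP1B-BODIPY-GDP and 50 uM GDP; compound added, 5 min at room temperature, then read (ex 480/em 540 nm) every 5 min for 30 min. Normalized to 6.5 mM cAMP agonist control.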
% is scaled to controls: 0 for no effect and ±100 for the full control effect.

SMILES	activation
COC(=O)C(c1ccccc1)C1CCCCN1 (stereo not drawn)	inactive: -6.45%
COC(=O)c1cncn1C(C)c1ccccc1 (stereo not drawn)	inactive: -12.1%
ClC=C(Cl)Cl	inactive: -4.89%
C[C@H]1C(=O)O[C@@H]2CCN3CC=C(COC(=O)[C@](C)(O)[C@]1(C)O)[C@H]23	inactive: 17.2%
CCCN1C[C@H](C)N([C@H](c2ccc(C(=O)N(CC)CC)cc2)c2cccc(OC)c2)C[C@H]1C	inactive: -26.5% and inactive: -7.7%
CC(C)=CCCC1(C)C=Cc2c(O)c3c(c(CC=C(C)C)c2O1)OC12C(=CC4CC1C(C)(C)OC2(C/C=C(/C)C(=O)O)C4O)C3=O (stereo not drawn)	inactive: -33.8%
Clc1ccc([C@@H]2C[C@H]3CC[C@@H]2N3)cn1	inactive: -29.3% and inactive: -15.5%
O=C(O)COc1cc(Cl)c(Cl)cc1Cl	inactive: -9.08%
O=[N+]([O-])/N=C1\NCCN1Cc1ccc(Cl)nc1	inactive: -31.2% and inactive: 12.4%
CC(=O)OCC1=C(C(=O)O)N2C(=O)[C@@H](N)[C@H]2SC1	inactive: -1.58%
CN1C(=O)CN=C(c2ccccc2)c2cc([N+](=O)[O-])ccc21	inactive: 4.76%
CC(=O)[C@H]1CC[C@H]2[C@@H]3CC[C@@H]4C[C@H](O)CC[C@]4(C)[C@H]3CC[C@]12C	inactive: 1.96%
CCC1C2CC3C4N(C)c5ccccc5[C@]45CC(C2C5O)N3C1O (stereo partly drawn)	inactive: -2.58%
CCCN1CCc2cc(O)cc3c2[C@H]1Cc1ccc(O)c(O)c1-3	inactive: -24.3%
OC[C@@H](O)[C@H]1O[C@@H]2O[C@H](C(Cl)(Cl)Cl)O[C@@H]2[C@H]1O	inactive: 2.88%
O=C(O)CCC1NCC2CC1CN1CCCCC21 (stereo not drawn)	inactive: -6.42%
COc1cc(CCN)ccc1O	inactive: 3.01%
O=C(Oc1ccccc1)N1CCC2(CCN(Cc3nccs3)CC2)CC1	inactive: -6.89%
C#CCN[C@H](C)Cc1ccccc1	inactive: -15%
CCCN(CCC)[C@@H]1CCc2cccc(O)c2C1	inactive: -13.9% and inactive: 0.74% and inactive: -46.2%
C[C@]12CC[C@H]3[C@@H](CCC4=CC(=O)CC[C@@]43C)[C@@H]1CC[C@H]2O	inactive: -0.042%
NCc1cc(=O)[nH]o1	inactive: -11% and inactive: -12.9% and inactive: -6.25%

SMILES	activation
C[C@H]1CCC/C=C/C2C[C@H](O)C[C@H]2[C@H](O)/C=C/C(=O)O1 (stereo partly drawn)	inactive: 2.69%
CN1C(=O)NC(=O)C(C)(C2=CCCCC2)C1=O (stereo not drawn)	inactive: -16.2% and inactive: 7.96%
O=C1CCC[C@H]2[C@H]3CCCN4CCCC(=CN12)[C@@H]34	inactive: 2.17%
COc1cc2c(c(OC)c1OC)-c1ccc(O)c(=O)cc1[C@@H](NC(C)=O)CC2	inactive: -8.03%
O=C1CCCC2[C@@H]3CCCN4CCC[C@@H](CN12)C34 (stereo partly drawn)	inactive: 2.93%
CN1CCCC(=C(c2cccs2)c2cccs2)C1	inactive: -15.2%
C#C[C@]1(O)C=C[C@H]2[C@@H]3CCC4=CC(=O)CC[C@@H]4[C@H]3CC[C@@]21CC	inactive: -11.6%
Cc1nnc2ccc(-c3cccc(C(F)(F)F)c3)nn12	inactive: -19.7%
COc1cc2c(cc1-c1cc3cc4ccoc4cc3oc1=O)OCO2	inactive: -15.2%
CCCC[C@@H](C)[C@@H](OC(=O)C[C@@H](CC(=O)O)C(=O)O)[C@H](C[C@@H](C)C[C@H](O)CCCC[C@@H](O)C[C@H](O)[C@H](C)N)OC(=O)C[C@H](CC(=O)O)C(=O)O	inactive: -4.43%
COC(=O)[C@H]1[C@@H](OC(=O)c2ccccc2)C[C@@H]2CC[C@H]1N2C	inactive: -17.2%
CCC1C(=O)OC[C@H]1Cc1cncn1C (stereo partly drawn)	inactive: -4.78%
C[C@@H](Cc1ccc(OCC(=O)O)cc1)NC[C@H](O)c1cccc(Cl)c1	inactive: -8.02%
CC(C)C[C@H](CN)CC(=O)O	inactive: 13.8%
COc1cc2c(cc1OC)[C@@H]1C(=O)c3ccc4oc(C(C)C)cc4c3OC1CO2 (stereo partly drawn)	inactive: -22.5%
CN(C)C(=S)SSC(=S)N(C)C	inactive: -26.3% and inactive: -18.9%
C[C@H](NC(=O)[C@@H](N)Cc1ccc(O)cc1)C(=O)N[C@@H](Cc1ccccc1)C(=O)N[C@@H](Cc1ccccc1)C(N)=O (H-YAFF-NH2)	inactive: 0.757%
CC1CC[C@@]2(NC1)O[C@@H]1C[C@H]3C4CC=C5C[C@@H](O)CC[C@]5(C)C4CC[C@]3(C)[C@H]1[C@@H]2C (stereo partly drawn)	inactive: -1.86%
CC(C)(C)NCC(O)c1ccccc1Cl (stereo not drawn)	inactive: -21.4% and inactive: -18%
CC1(C(=O)O)C2CCC(O2)C1(C)C(=O)O (stereo not drawn)	inactive: -33.5%
Oc1ccc([C@H]2CNCc3c2ccc(O)c3O)cc1O	inactive: -2.04%
CCCN(CCC)[C@@H]1CCc2c(OC)cccc2[C@@H]1C	inactive: -8.41% and inactive: -15%

SMILES	activation
C[C@@]1(CO)[C@H](O)CC[C@@]2(C)[C@H]1CC[C@H]1C[C@@H]3C[C@@]12CC[C@]3(O)CO	inactive: -50%
CN1[C@@H]2CC[C@H]1CC(OC1c3ccccc3CCc3ccccc31)C2 (stereo partly drawn)	inactive: 2.11%
NC(=NCCc1ccc(I)cc1)SCCCc1cnc[nH]1	inactive: 2.46% and inactive: 0.812%
CC(C)(C)C(=O)C(Oc1ccc(Cl)cc1)n1cncn1 (stereo not drawn)	inactive: -17%
CC(=O)OO	inactive: -15.7%
CN(C)[C@H](Cc1ccccc1)c1ccccc1	inactive: -7.6%
CNC(C)C(O)c1ccccc1 (stereo not drawn)	inactive: -20.7%
COc1ccc(CNC(=O)/C=C\c2ccc3[nH]cc(CCN(C)C)c3c2)cc1	inactive: -1.86%
CC(C)Oc1cccc(NC(=O)c2ccccc2C(F)(F)F)c1	inactive: -18.4%
CN1CC[C@@]23CCCC[C@@H]2[C@@H]1Cc1ccc(O)cc13	inactive: 4.34%
COc1cc(C[C@@H](C)N)c(OC)cc1Br	inactive: -0.789%
O=NN1CCCC1c1cccnc1 (stereo not drawn)	inactive: -7.5%
CC(C)c1cc2c(c(O)c1O)[C@]1(C(=O)O)CCCC(C)(C)C1CC2 (stereo partly drawn)	inactive: -4.43%
CCN(CC)C(=O)[C@@H]1C=C2c3cccc4[nH]cc(c34)C[C@H]2N(C)C1	inactive: 27.5%
CCNC1(c2cccs2)CCCCC1=O (stereo not drawn)	inactive: -5.35%
CC(C)C[C@H](NC(=O)[C@H](Cc1ccccc1)NC(=O)CNC(=O)[C@@H](NC(=O)[C@@H](N)Cc1ccc(O)cc1)[C@H](C)O)C(=O)N[C@H](C(=O)O)[C@H](C)O	inactive: 1.51%
CCNC(C)Cc1cccc(C(F)(F)F)c1 (stereo not drawn)	inactive: -1.18%
C1CCC(NC2CCCCC2)CC1	inactive: -4.19%
COc1ccc(C(=O)CN2CCOCC2)cc1	inactive: 0.04%
CCC1(c2cccc(O)c2)CCCCN(C)C1 (stereo not drawn)	inactive: -17.8%
C[C@H](N)Cc1c[nH]c2ccc(OCc3cccs3)cc12	inactive: -6.52%
CC(C)[C@]1(O)[C@@H](OC(=O)c2ccc[nH]2)[C@@]2(O)[C@@]3(C)C[C@]4(O)O[C@@]5([C@H](O)[C@@H](C)CC[C@]35O)[C@@]2(O)C41C	inactive: -3.56%

SMILES	activation
C[C@@H]1CC[C@H]2[C@@H](C)C(=O)O[C@@H]3O[C@@]4(C)CC[C@@H]1[C@]32OO4	inactive: -30.1%
CC(=O)OCC1=C(C(=O)O)N2C(=O)C(NC(=O)CCCC(N)C(=O)O)C2SC1 (stereo not drawn)	inactive: 5.6%
CC(=O)C1=C(O)[C@@H]2[C@@H]3c4c[nH]c5cccc(c45)C[C@@H]3C(C)(C)N2C1=O	inactive: -11.2%
CS(=N)(=O)CC[C@H](N)C(=O)O (stereo partly drawn)	inactive: -37.1%
O=c1cccc2n1CC1CC2CN2CCCCC12 (stereo not drawn)	inactive: -3.23%
CCCN(CCC)CCc1ccc(O)c(O)c1	inactive: 2.62% and inactive: -53.7%
Cc1nc2cnc(N3CCNCC3)nc2n(C)c1=O	inactive: -28.8%
c1cnc(N2CC3(CCNCC3)C2)nc1	inactive: 2.58%
CC1(C)N([O-])[N+](=O)C1(C)Br (stereo not drawn)	inactive: -16.7%
COc1ccc2c(c1)/C(=C/c1cnc[nH]1)C(=O)N2	inactive: -32.4%
C[C@@]12C=CC(=O)C=C1CCC1C2CC[C@]2(C)C(=O)CCC12 (stereo partly drawn)	inactive: -7.37%
CCCCCc1cc(O)c2c(c1)OC(C)(C)c1ccc(C)cc1-2	inactive: 14%
COc1ccc2c(c1)[nH]c1c(C)nccc12	inactive: 0.0563% [middle of 4 runs]
CCc1cccc(C)c1N(C(=O)CCl)C(C)COC (stereo not drawn)	inactive: -6.76%
Ic1ccccc1CNC1C2CCN(CC2)C1C(c1ccccc1)c1ccccc1 (stereo not drawn)	inactive: -11.7%
Oc1c(Cl)c(Cl)c(Cl)c(Cl)c1Cl	inactive: -14.2%
O=C1c2ccccc2C(=O)c2ccccc21	inactive: -29.9% and inactive: 4.19%
CCN(C(C)=O)c1cccc(-c2ccnc3c(C#N)cnn23)c1	inactive: 2.36%
CNC(C)[C@H](O)c1ccccc1 (stereo partly drawn)	inactive: -15.3%
CC(=O)OC[C@]12C[C@H](OC(=O)CC(C)C)C(C)=C[C@H]1O[C@H]1[C@H](O)[C@@H](OC(C)=O)[C@@]2(C)[C@]12CO2	inactive: 6.55%
O=[N+]([O-])c1ccc([As](=O)(O)O)cc1	inactive: 3.57%
C1CC[C@H]([C@@]23C[C@H](C[C@H]4CCCN[C@H]42)[C@@H]2CCCCN2C3)NC1	inactive: -11.4%
